Assay results as given in the supplement of paper PMC11417369.
This is one part of the list.

Tested on: PfHDP1 homeodomain (GST-tagged)
Assay: gcPBM binding intensity (ln(normalized median fluorescence intensity)); higher = stronger DNA binding
Procedure, shortened: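 Binding intensity is the highest Masliner-normalised natural-log median intensity over replicate spots in either probe orientation. To obtain it, GST-tagged P. falciparum DNA-binding domains made in E. coli were incubated for 1 h on an Agilent 4 × 180k array of primer-extended double-stranded 36-bp intergenic genomic probes plus negative controls. Detection used Alexa488 anti-GST antibody with scanning at 488 nm.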

Sequence	gcPBM binding intensity (ln)
ACAATATTTTTTTATAAACACACATATATATAAATA [CACACA_site9175]	6.87
TATAGTGATATATACACACACTTGTCTTGTAAAAAT [CACACA_site6594]	6.63
TATATATATATATATTGTACTTTATATGTTCTTATA [XGTACX_site7545]	9.13
AAATATTACATTTGTTAAATAATATGTTATACATAA [XGTACX_negctrl_site484]	5.89
TTTTATAAAGGAAAAGCATGCAGACTAAAAGATCAT [TGCATGCA_site150]	7.22
TAATGGAGAAAAAAAAAACACACGGTACATTCAAAG [CACACA_site3117]	6.68
AAGGGAAAATAATAAAAGAAAAAGAAAAAAAAAAAA [CACACA_negctrl_site1518]	5.82
AATGTGTATATATATACACACACATATATATATTTT [CACACA_site8596]	7.12
TCCTTTTTACTACTAGTGCATTATTTACAAGGTCCG [GTGCAC_site9441]	9.57
TAGTTTTTTATATATTGTACTTAGAATATATTATAT [XGTACX_site3662]	6.22
AGGATAATATACAAAAGTACATAAAACTAAAAAAAC [XGTACX_site605]	6.68
AAAGAAAGAAAGAATACACACACACCGATATATATA [CACACA_site9246]	6.95
AACATATATTTTGAAACACACACATATATAATATAC [CACACA_site8301]	6.81
GGACACCTTCAAAACACACATACAAATAAATAGAAA [CACACA_site3305]	6.67
ATATAAATATATATATGTACATAATATATTATGTTT [XGTACX_site2806]	6.47
AATTTAACCACTAAAAGTACACACATATATACATAT [XGTACX_site8352]	6.44
TAGTATTTATATGTTATATATATAAAATAATACAGT [XGTACX_negctrl_site571]	6.5
TATATAGAATTATATGCATGTTCAAAAAAATACAAC [TGCATGCA_site431]	6.64
ATATCTAATAAAAATACACACACATATGATTTGTGA [CACACA_site8558]	6.44

Sequence	gcPBM binding intensity (ln)
TTCTATTTTTTAAAAGTGCATATTATAAATATATAT	7.57
AATAGTTCTTGAACGTGTACATAAAATATAATTTAC [XGTACX_site11]	6.36
GAATAATCCAAACACACACACACACCCGAATAAATA [CACACA_site482]	6.9
GAAATCTAAATAGAAACACACATATATAAATAAATA [CACACA_site7762]	6.33
TTTTATATATAATTCACACAAAAAAGATACATAAGA [CACACA_site5332]	6.85
TATATAAAAATATGTTGTACGCATTTATAAATATAT [XGTACX_site3758]	6.64
ATTTTTTTTTTTTTTTTTTTTTTTTTTGAATTCACA [CACACA_negctrl_site982]	5.92
ATTTTGTTTTTTTTTGCACACCATAAGGAGTGTAGG [CACACA_site1414]	10.1
ATAAAAATATAATTGAGTACATATGAATAGTCCTAT [XGTACX_site6281]	6.24
TAAGCAAAAATAATTACACACAAATTTATAAAAAAT [CACACA_site3377]	6.19
ACAACACATATTCATCGTACATGTATTAGGAAGACA [XGTACX_site1859]	6.65
GGTGTATGTTAAAGGAGTACATATATATATATATAT [XGTACX_site7727]	9.6
TATTTTTATTTATAACGTACGAAAAATGTATATAAT [XGTACX_site703]	6.97
CATACACATTTCATATGTACATAGATTGAAGGGAAG [XGTACX_site116]	6.61
TGGAGGTCAGTTCACAGTACCCAGGAAATCTGCGGA [XGTACX_site2556]	5.68
TATAACATAGGACACACACACATACATACACAAAAA [CACACA_site5062]	7.06
ATGCATAATATACTCTTACACACCATTTCTATATAC [CACACA_site1461]	6.95
TCATATATTTTATACATACACACATATATATATTTT [CACACA_site3941]	6.96
ACGTTATACACAGTACGTACATAACTATCTAAATGT [XGTACX_site5068]	6.9

Sequence	gcPBM binding intensity (ln)
TGTGTATAAATATACACACACATATAAATATTTTAA [CACACA_site7005]	6.75
TATTTAAAAAATAATACACACATAATATAACAAAAT [CACACA_site3174]	7.13
ACATATAATATAAATTGTACATATAAATATATTATT [XGTACX_site4268]	6.35
AAAAAAAAAAAACACACACACACACCCACCCATACA [CACACA_site2859]	7.04
TTTACAACATCAAAATGTACGCATTATTATTATTAA [XGTACX_site3017]	6.11
AGAAATATATATATATATATATATATATATATATAT [TGCATGCA_negctrl_site375]	9.43
AGTAACAAAAGAAAAAAATATGCAAACATATATATA [XGTACX_negctrl_site468]	6.79
TTCATTTTTTGCTTTCAACACACATACAATATATAT [CACACA_site9369]	7
AAAAAAAAAAAAAAATATATATATATATACATACAT [CACACA_negctrl_site317]	6.44
TTTTTCTTTTTTTCTTTTTTTATAAAACTTAATTGT [CACACA_negctrl_site384]	6.28
TATTAATTATATTTATGTACATAATCATATTATTAT [XGTACX_site7938]	6.53
ACGTAATAAAATAGTTGTACAACTTTTTATAATATA [XGTACX_site4393]	7.05
TATATATATATTATATGTACGTATGTATGTATATAT [XGTACX_site6451]	8.33
TCATAAATATGAAAAAGTACAAAGGTAGATTTTGAA [XGTACX_site4535]	6.39
AAACGATTAATGTGTACACACATAGTTATAAACCTA [CACACA_site2110]	6.59
GGTATACACAAGTATACACACATATATATATATATA [CACACA_site9063]	9.3
ACAAAGTTATAATTCTTGCACTTTAAGGTTCATTTA	7.08
ATAAATATCTAGGGTTCACACATTATATATCTGTAT [CACACA_site5702]	6.2
CGTGAATATATGATATGTACTTATAAAAATTTGTGC [XGTACX_site5480]	6.45
